# The supplement of paper PMC4166925
# ± gives the standard deviation of the averaged measurements. Over roughly 33,000 sequences, “E-score (dimensionless, -0.5 to 0.5)” has its median near -0.046; the highest 2% begin near 0.36. The list shows a part of the results.
# System: T1, SpTbr T-box DNA-binding domain (GST fusion)
# T1 sequence: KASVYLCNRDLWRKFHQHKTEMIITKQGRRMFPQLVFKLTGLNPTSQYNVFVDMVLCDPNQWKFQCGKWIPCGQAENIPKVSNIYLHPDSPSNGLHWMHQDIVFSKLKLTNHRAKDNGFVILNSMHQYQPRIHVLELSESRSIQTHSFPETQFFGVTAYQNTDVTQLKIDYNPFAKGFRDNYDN
# Assay: PBM E-score of 8-mer (E-score (dimensionless, -0.5 to 0.5)); Tbr is Tbrain of the sea star Patiria miniata (Pm) or the sea urchin Strongylocentrotus purpuratus (Sp); higher = stronger binding preference; most listed sequences are background and not binding sites
# Settings: the construct has about 5 more residues each side
# Procedure, shortened: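 GST-fused Tbr T-box DNA-binding domains (the whole T-box plus about five flanking residues) were expressed in BL21 E. coli at 20 °C and purified by glutathione affinity chromatography. Universal Agilent oligonucleotide arrays were made double-stranded by primer extension, incubated with 200 nM protein in PBS (pH 7.5), then scanned and quantified. Every ungapped 8-mer was scored from probe intensities. The Universal PBM Analysis Suite gave each word an enrichment E-score, averaged over duplicate arrays.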
row,Sequence,PBM E-score of 8-mer
1,GACAGCAA,0.207 ± 0.095
2,CGGTAAAG,-0.128 ± 0.036
3,CTGGACCC,-0.273 ± 0.069
4,ACGATCTA,0.0239 ± 0.057
5,ACTCAAGC,-0.127 ± 0.023
6,GATCGCAC,0.442 ± 0.0075
7,ATTTTATC,-0.0724 ± 0.048
8,AGAGGCCC,-0.318 ± 0.013
9,AGCGATTC,-0.168 ± 0.06
10,GCCAACCC,-0.0414 ± 0.077
11,GAGGTTAA,-0.0728 ± 0.0024
12,ACTCCTTG,-0.126 ± 0.059
13,AAATACGA,-0.24 ± 0.0075
14,ACGCTACC,0.0763 ± 0.082
15,CCATAGTA,-0.187 ± 0.0044
16,AGTGAACG,0.162 ± 0.051
17,CTGCTACC,-0.0436 ± 0.013
18,ATCGTGAC,0.219 ± 0.022
19,CAATTACC,0.162 ± 0.095
20,ATTCTCGA,0.0267 ± 0.0077
21,GCTTAGTA,-0.201 ± 0.025
22,ATCTAAAT,-0.089 ± 0.064
23,CTTCGGTC,-0.221 ± 0.051
24,CTTTCGCA,0.421 ± 0.015
25,AACTAAAC,-0.187 ± 0.0053

row,Sequence,PBM E-score of 8-mer
1,CGCCGGAG,-0.0395 ± 0.056
2,GCCATCGA,0.0625 ± 0.023
3,CAGGAGGC,-0.0988 ± 0.046
4,CACGAGGC,-0.0132 ± 0.011
5,CGGCAAAA,-0.0381 ± 0.004
6,CGGTCGTA,-0.141 ± 0.13
7,GCAAAAGC,-0.03154 ± 0.00023
8,GGGGTCCA,-0.249 ± 0.045
9,ACGAGGCA,-0.168 ± 0.038
10,CAAGGTAG,0.0244 ± 0.015
11,AAGCAATT,-0.202 ± 0.049
12,AGATGTGA,0.361 ± 0.025
13,TATGAAGA,-0.137 ± 0.033
14,GCATTTTA,-0.0869 ± 0.03
15,CGTGTGAG,0.4011 ± 0.0033
16,CATCGACC,0.0447 ± 0.036
17,GAATGATA,-0.0927 ± 0.06
18,ACGGCACT,-0.144 ± 0.06
19,AAAACTCA,-0.1 ± 0.013
20,CCGTCCTA,-0.308 ± 0.019
21,ACAGCTAT,0.157 ± 0.055
22,CAGTGACG,0.0986 ± 0.12
23,GCTGTTAA,0.162 ± 0.0053
24,ACGCGTTG,0.206 ± 0.032
25,CTTACGCC,0.177 ± 0.0022

row,Sequence,PBM E-score of 8-mer
1,ATCGGGTA,-0.204 ± 0.06
2,TACATCGA,-0.0975 ± 0.032
3,CCAGTTCG,-0.156 ± 0.03
4,AGGAATCC,-0.149 ± 0.064
5,GTACCAAC,-0.0291 ± 0.021
6,ATCGAAAC,-0.119 ± 0.06
7,GCCTAAAA,-0.0908 ± 0.017
8,CCTGCGCA,0.111 ± 0.048
9,CAGGCCCA,-0.331 ± 0.058
10,ACGCTGAC,0.0661 ± 0.013
11,TACGCATA,-0.156 ± 0.054
12,CTTGTCGC,0.315 ± 0.0039
13,TATCGAAA,0.026 ± 0.078
14,ACTGAGAT,-0.117 ± 0.046
15,AACTAAAG,-0.0231 ± 0.0062
16,AGGGAACA,-0.217 ± 0.0073
17,AAATATGG,-0.22 ± 0.077
18,CTTGGGCC,-0.1567 ± 0.001
19,ATCAAGGG,-0.0257 ± 0.016
20,CAGGATTA,-0.198 ± 0.045
21,GTATCAAC,0.0342 ± 0.029
22,CGAGCACC,-0.0427 ± 0.039
23,ACGACGAT,0.0587 ± 0.018
24,CAGAGATG,-0.126 ± 0.018
25,CATCTTCA,-0.0355 ± 0.006

row,Sequence,PBM E-score of 8-mer
1,CCTGACTC,-0.148 ± 0.0063
2,AGACCTTC,-0.26 ± 0.016
3,GCCCATCA,-0.222 ± 0.021
4,AACTGAAA,0.0396 ± 0.052
5,CCCAAGAC,-0.118 ± 0.058
6,CTCTCGCA,0.286 ± 0.033
7,GCGCCCGC,0.037 ± 0.07
8,GCGATCCC,0.179 ± 0.034
9,TCAATTGA,-0.0646 ± 0.015
10,CCAGCGCG,0.0431 ± 0.073
11,CATCGGTC,-0.0822 ± 0.071
12,GCAAGAAC,-0.07 ± 0.062
13,CAGAAATA,-0.184 ± 0.015
14,AACGGCAC,0.125 ± 0.012
15,CTCCGAAG,0.05362 ± 0.00038
16,GAGCTCGA,-0.193 ± 0.049
17,ATGCCCTC,-0.0953 ± 0.058
18,CTACAGAA,0.0406 ± 0.032
19,CCTTTGTC,0.0853 ± 0.038
20,ATCATCGC,0.102 ± 0.029
21,CCCTTGTA,-0.095 ± 0.058
22,TAGGCACA,0.16 ± 0.04
23,GTGATTTA,0.156 ± 0.047
24,TCCGGGAA,-0.247 ± 0.053
25,CAGAGATC,-0.204 ± 0.022

row,Sequence,PBM E-score of 8-mer
1,AATTTTTG,-0.177 ± 0.081
2,AATCGTGG,-0.0511 ± 0.015
3,CCCTCACG,0.153 ± 0.063
4,GCATGCCC,-0.197 ± 0.0077
5,GGGTTGAC,0.0787 ± 0.0039
6,AAAAGGAG,0.0274 ± 0.064
7,AGACGACG,-0.0597 ± 0.021
8,ATCCAGTA,0.0699 ± 0.044
9,AAGTCAAA,-0.0558 ± 0.0054
10,AAGCACGG,-0.189 ± 0.076
11,TGAGGACA,0.153 ± 0.0036
12,GCTCGCAC,0.4252 ± 0.0014
13,CGGCCGGA,-0.209 ± 0.031
14,TCTAACCA,-0.0741 ± 0.054
15,CCTACAGC,-0.252 ± 0.035
16,AAACATTA,-0.209 ± 0.02
17,CCCACAGG,0.158 ± 0.05
18,CCGCTTAG,-0.178 ± 0.067
19,AGCGCGGA,0.106 ± 0.044
20,CTTTGCCC,-0.138 ± 0.021
21,ACGCACTA,-0.0875 ± 0.03
22,CCCCTGAA,-0.127 ± 0.03
23,ATGTATGG,-0.196 ± 0.14
24,AGACCCCC,-0.302 ± 0.007
25,ATCTATTA,-0.115 ± 0.088

row,Sequence,PBM E-score of 8-mer
1,CATCCAAG,0.00205 ± 0.047
2,GCTAGTTA,0.0926 ± 0.023
3,CCTTCAAG,-0.246 ± 0.043
4,AGCACGAT,0.131 ± 0.03
5,AAGGGTAG,-0.0117 ± 0.11
6,GCAGAATA,-0.11507 ± 1.4e-05
7,CAACTCAC,0.158 ± 0.0036
8,ACGAGCCC,-0.125 ± 0.04
9,ATTCTATG,-0.165 ± 0.047
10,AGGATATG,-0.272 ± 0.039
11,ATACCGAA,-0.114 ± 0.04
12,TGAACAAA,0.0874 ± 0.0066
13,CAGTCTGG,-0.196 ± 0.021
14,ATACGGGC,-0.196 ± 0.049
15,ATGTTCAA,-0.0744 ± 0.011
16,CGTGGTTA,0.02 ± 0.011
17,CCGCCTTA,-0.152 ± 0.076
18,CAGGTTGG,0.108 ± 0.044
19,ACAATGCA,-0.107 ± 0.0079
20,CCGCACGG,-0.0976 ± 0.031
21,CGAAAGCC,0.0161 ± 0.077
22,AGTACTAA,-0.159 ± 0.016
23,AAGTTCCT,-0.0764 ± 0.025
24,AAGACACG,0.1363 ± 0.00044
25,AGTCCGTC,-0.0169 ± 0.054

row,Sequence,PBM E-score of 8-mer
1,AGATTCCA,-0.111 ± 0.055
2,ACGATGCA,-0.158 ± 0.0063
3,ATAGTAGA,-0.286 ± 0.061
4,ACTGTTGA,0.107 ± 0.023
5,AGTATCTG,-0.212 ± 0.042
6,TATATGAA,-0.182 ± 0.0078
7,GAGGTATA,-0.0744 ± 0.025
8,TATACGAA,-0.269 ± 0.042
9,GGCCAACC,-0.0636 ± 0.015
10,ACACTCCT,0.193 ± 0.021
11,AATGATAA,0.0132 ± 0.1
12,AATTCCAC,0.00147 ± 0.065
13,TCTGGCCA,-0.314 ± 0.058
14,ATGGGGCG,-0.0313 ± 0.038
15,ATCGACGC,0.144 ± 0.042
16,GCGATACC,0.155 ± 0.039
17,AGAACTGA,-0.235 ± 0.023
18,CCTTAGCA,0.238 ± 0.036
19,GGCCAGAC,-0.263 ± 0.02
20,GGATTAAA,0.0114 ± 0.049
21,GCGGTTGA,-0.0421 ± 0.044
22,ATTTAGTA,-0.22 ± 0.022
